# In PubChem BioAssay AID485344 (National Center for Advancing Translational Sciences (NCATS), 2010):
# The campaign covered roughly 340,000 compounds. About 6,900 (2%) were called active. No stated cut-off is given here; in the data, active means inhibition above about 30%; inactive means below that, where a call was filed. The entries are a selection whose mix differs from that of the whole data set. Entries without a call were filed so in the source.
# Target: D(2) dopamine receptor (Homo sapiens) (UniProt P14416)
# Experiment: HTS Assay for Allosteric Antagonists of the Human D2 Dopamine Receptor: Primary Screen for Antagonists; further: 0% is about no effect
# Details: HEK293 TREx D2 cells, calcium flux, dopamine EC80; at 10 µM; stronger effect = higher value
# How it was run: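 Inhibition of EC80 dopamine-driven calcium flux, recorded kinetically, defines activity here; cells are a tetracycline-induced HEK293 T-REx line expressing force-coupled D2.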
# Chain of UniProt P14416 (P14416 whole entry, looked up): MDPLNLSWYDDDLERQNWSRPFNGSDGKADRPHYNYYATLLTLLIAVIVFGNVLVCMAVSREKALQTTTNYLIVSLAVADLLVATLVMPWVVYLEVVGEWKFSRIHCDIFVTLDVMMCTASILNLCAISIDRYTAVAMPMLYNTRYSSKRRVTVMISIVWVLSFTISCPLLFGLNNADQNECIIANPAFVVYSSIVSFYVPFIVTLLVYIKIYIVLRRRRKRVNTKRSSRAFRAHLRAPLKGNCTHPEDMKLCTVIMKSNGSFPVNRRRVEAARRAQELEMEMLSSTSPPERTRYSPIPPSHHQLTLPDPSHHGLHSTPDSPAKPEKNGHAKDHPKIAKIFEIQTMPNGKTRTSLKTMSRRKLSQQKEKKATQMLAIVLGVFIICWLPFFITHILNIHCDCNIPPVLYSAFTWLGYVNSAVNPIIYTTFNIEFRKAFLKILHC
row,SMILES,inhibition
1,CCc1ccc(N2C(=O)CS(=O)(=O)C23C(=O)N(Cc2ccccc2F)c2ccccc23)cc1 (stereo not drawn),0.916%
2,CCOc1cc(C2c3c(oc4ccccc4c3=O)C(=O)N2Cc2ccccc2Cl)ccc1O (stereo not drawn),22.9%
3,Cc1sc(NC(=O)COc2ccc(C(C)(C)C)cc2)c(C(=O)OC(C)C)c1C,3.62%
4,Cc1ccc(NC(=O)C(C)N2CCCC2)cc1Cl (stereo not drawn),active: 33.1%
5,CCOC(=O)c1scc(-c2ccc(C)cc2)c1S(=O)(=O)Nc1ccc(F)c(F)c1,3.64%
6,Cn1c(=O)n(CCCc2ccccc2)c(=O)c2c1nc1n2CCN1c1ccccc1,-25.2%
7,CCN(Cc1ccccc1)C(=O)CCS(=O)(=O)c1ccc2c(c1)oc(=O)n2C,-7.81%
8,COc1ccc2c(c1)c(=O)c(C(=O)c1ccc(Cl)cc1)cn2CC(=O)Nc1ccc2c(c1)OCO2,-21.4%
9,CC(C)(C)c1ccc(C(=O)Nc2ccc([N+](=O)[O-])cn2)cc1,active: 35.6%
10,Cc1c(Cl)cccc1NC(=O)NCCOCCn1c(=O)oc2ccccc21,-20.6%
11,CCOC(=O)c1ccc(NC(=O)CN2C(=O)CC(c3ccc(C)c(C)c3)=Nc3ccccc32)cc1,23%
12,Cc1cc(NC(=O)CN2C(=O)CSc3ccc(S(=O)(=O)N(C)C)cc32)ccc1Br,-1.9%
13,CCOC(=O)c1c(NC(=O)c2nc(SC)ncc2Cl)sc(C)c1C,7.09%
14,CSc1ccc(CCNC(=O)c2ccc3c(c2)nc2n3CCOC2)cc1,-24.1%
15,Cc1ccc(NC(=O)c2ccc(F)c(S(=O)(=O)N3CCc4ccccc4C3)c2)cc1F,1.56%
16,CC(C)c1nnc(NC(=O)c2nc(S(=O)(=O)Cc3ccccc3)ncc2Cl)s1,-7.78%
17,COc1ccc(Cl)cc1NC(=O)CSc1cn(CC(=O)N2CCCC2)c2ccccc12,1.21%
18,COc1ccccc1CNC(=O)c1cc2c(=O)n(Cc3cccs3)ccc2nc1C,9.36%
19,COc1ccc(-n2ncc3c2ncn2nc(-c4ccc(Cl)cc4Cl)nc32)cc1,11.8%
20,COc1cccc(OC)c1Cn1nnc2c(=O)[nH]c(C3CCN(C(=O)c4ccccc4)CC3)nc21,5.97%
21,COc1ccc(CCNC(=O)CSCc2nc(-c3ccc(OC)c(OC)c3)oc2C)cc1OC,9.05%
22,COc1cc(OC)c(NC(=O)c2ccc3c(Cl)c4c(nc3c2)CCCC4)cc1Cl,-18.1%
23,CN1C(=O)c2ccccc2Sc2ccc(NC(=O)COc3ccc(Cl)cc3)cc21,16.8%
24,COCCNc1ccc(-c2nc(-c3cccc(C)c3)no2)cc1[N+](=O)[O-],24.6%
25,CC1CCCN(C(=O)Cn2c(=O)n(CC3CCC(C(=O)NC(C)C)CC3)c(=O)c3sccc32)C1 (stereo not drawn),2.14%

row,SMILES,inhibition
1,Cn1c(-n2cccc2)c(-c2c(-c3ccc(F)cc3)[nH]c3c2c(=O)[nH]c(=O)n3C)c(=O)[nH]c1=O,-6.45%
2,CCOc1ccc(NC(=O)Cn2c(=O)n(Cc3nc(-c4ccccc4)no3)c(=O)c3ccccc32)cc1,1.28%
3,COCc1c(C(=O)N2CCN(Cc3ccc4c(c3)OCO4)CC2)oc2ccccc12,active: 70.5%
4,CCOC(=O)C1=C(CS(=O)(=O)c2ccc(C)c(C)c2)NC(=O)NC1c1ccccc1OCC (stereo not drawn),-5.48%
5,O=C(Cn1c(=O)ccc2cc(S(=O)(=O)N3CCCC3)ccc21)NCc1ccc(F)cc1,-8.23%
6,COc1cccc(C2Nc3ccccc3-c3nnc(SCc4ccccc4)nc3O2)c1OC (stereo not drawn),20.2%
7,Cc1ccc(S(=O)(=O)c2nc(-c3ccccc3)oc2SCC(=O)NC2CCCCC2)cc1,-3.57%
8,COc1ccc(NC(=O)C(CC(C)C)NS(=O)(=O)c2ccc3c(c2)oc(=O)n3C)cc1Cl (stereo not drawn),-25.9%
9,CCOC(=O)N1CCC(NCCNC(=O)c2cccc(F)c2)CC1,active: 60.3%
10,CCc1ccc(-n2nc(CO)c(C(=O)NCCCCc3ccccc3)n2)cc1,-12%
11,O=C(NCc1ccc(Cl)cc1)c1cc(-c2ccc(F)cc2)on1,-16.9%
12,O=C(COc1ccc(Br)cc1)Nc1cccc2cccnc12,-4.89%
13,COC(=O)CN1C(=O)C(C)(C)c2cc(S(=O)(=O)Nc3ccc(C(C)C)cc3)ccc21,3.57%
14,Cc1ccc(C)c(CN2C(=O)C(O)(c3c[nH]c4ccccc34)c3ccccc32)c1 (stereo not drawn),13.2%
15,CC(NC(=O)c1cc2ccccn2n1)c1ccccc1 (stereo not drawn),2.58%
16,CCc1cccc(NC(=O)c2coc(=O)c3ccccc23)c1,7.45%
17,COC(=O)c1ccc(Cl)cc1NC(=O)N1CCC(CN2CCC(C)CC2)CC1,5.6%
18,CC(CCc1ccccc1)NCC(O)c1ccc(O)c(C(N)=O)c1 (stereo not drawn),active: 67.2%
19,COc1cccc(NC(=O)c2oc3ccccc3c2NC(=O)Cc2cccc(C)c2)c1,-1.07%
20,COc1ccc(OCC(=O)N2CCN(C(=O)c3ccc(OC)cc3)CC2)cc1,9.12%
21,COc1ccc(CCNC(=O)CCCn2c(=O)c3cccn3c3ccc(F)cc32)cc1OC,-6.62%
22,CCOc1ccc(Nc2nc(Nc3ccc(OCC)cc3)nc(N3CCOCC3)n2)cc1,7.56%
23,COc1ccc(NC(=O)CC2C(=O)N(c3ccc(C)cc3)C(=O)N2C2CCCC2)cc1 (stereo not drawn),-3.04%
24,Cc1ccc(Cl)c(OCCCN(C)Cc2ccccc2)c1,active: 63.5%
25,COc1cc(N)c(Cl)cc1C(=O)OCC(=O)N1CCCC1,active: 31.6%

row,SMILES,inhibition
1,CCOc1ccc(C(=O)c2cn(CC(=O)Nc3ccc(C)c(C)c3)c3ccc(OCC)cc3c2=O)cc1,10.6%
2,COc1cc(O)c(C(CC(=O)N2CCCC(C)C2)c2ccc(N(C)C)cc2)c(OC)c1 (stereo not drawn),active: 31.3%
3,COc1ccc(N2CC(NC(=O)c3ccc(S(=O)(=O)N4CCOCC4)cc3)CC2=O)cc1 (stereo not drawn),5.82%
4,COc1cc2c(cc1OC)C(COc1ccc(C(C)C)cc1)N(C(=O)COc1ccccc1)CC2 (stereo not drawn),-3.71%
5,COc1ccccc1NC(=O)C1CCN(c2ncnc3c2nc2n3CCCCC2)CC1,0.733%
6,CCS(=O)(=O)c1nc(S(=O)(=O)c2ccc(C)cc2)c(NCc2ccccc2Cl)s1,0.318%
7,CCOC(=O)CSc1ncnc2c1c(-c1ccccc1)cn2-c1ccc(OC)cc1,-5.18%
8,CCOC(=O)Cn1cnc2c(cnn2-c2ccc(C)c(C)c2)c1=O,-3.97%
9,Cc1ccccc1C(=O)NCc1ccc2c(c1)CCN2C(=O)c1ccc(F)cc1,9.79%
10,CC1CCC(NC(=O)CCc2cn(Cc3ccc(F)cc3)c3ccccc23)CC1 (stereo not drawn),-9.95%
11,Cc1nn2c(=O)cc(COC(=O)COc3ccccc3C)nc2s1,13.5%
12,O=C(O)C1=CC(c2ccc(Br)cc2)n2ncnc2N1 (stereo not drawn),8.34%
13,CCOc1ccc(CCNC(=O)c2sc3nc4n(c(=O)c3c2C)CCCC4)cc1,-1.88%
14,O=C(O)Cn1nc(N2CCN(c3ccccc3)CC2)ccc1=O,18%
15,COc1ccccc1C1CCN(Cc2ccccc2Cl)CC1,active: 91.9%
16,Cc1sc2c(c1C)c(=O)n(Cc1ccccc1)c(=O)n2CC(=O)Nc1cccc(Cl)c1,1.68%
17,Cc1cc(C)c(OCC(O)CN2CCN(c3ccccn3)CC2)c(C)c1 (stereo not drawn),active: 78.1%
18,CCc1ccc(S(=O)(=O)c2cnc(SCC(=O)Nc3ccc(OC)cc3OC)[nH]c2=O)cc1,6.98%
19,Cc1ccc(N2C(=O)C(CC(=O)Nc3ccccc3)N(CCC3=CCCCC3)C2=O)cc1 (stereo not drawn),6.99%
20,Cn1c2ccc(F)cc2c2nnc(SCCN3CCCCC3)nc21,18.6%
21,CCOc1ccccc1N(CC)C(=O)c1cc2ccc3cccnc3c2[nH]1,1.46%
22,CCOc1ccccc1NC(=O)CN1C(=O)C(=O)c2ccccc21,-9.26%
23,CC(C)NC(=O)c1sc2ncccc2c1-n1cccc1,17.7%
24,CCCc1cc(=O)oc2cc(C)c3c(-c4ccccc4)c(C)oc3c12,-4.07%
25,O=C(CCS(=O)(=O)c1nc(-c2cccs2)cc(C(F)(F)F)n1)Nc1cccc(O)c1,16.3%

row,SMILES,inhibition
1,COc1ccccc1CNC(=O)c1cc(-c2ccccc2)n[nH]1,7.1%
2,Cc1oc(-c2cccc(Cl)c2)nc1CSCC(=O)O,-26.5%
3,CCN(C(=O)c1cc2c(Cl)nc3ccc(C)cc3c2s1)c1cc(OC)ccc1OC,-6.41%
4,CCC(=O)Nc1ccc(C)cc1-c1nc2ccccc2n(Cc2ccccc2)c1=O,26.4%
5,COc1ccccc1C(=O)Nc1c(C(=O)Nc2ccc(C)cc2)oc2ccccc12,13.7%
6,COc1ccc(NC(=O)C2CCCN2S(=O)(=O)c2ccc3c(c2)CCCC(=O)N3)cc1Cl (stereo not drawn),2.84%
7,COc1cc(C2CC(=O)Nc3cc4c(cc32)OCCO4)cc(OC)c1O (stereo not drawn),4.58%
8,Cc1oncc1C(=O)Nc1ccc(C(F)(F)F)cc1,active: 35.6%
9,CCCCC(=O)Nc1ccc(OCc2cc(=O)n3ccc(C)cc3n2)cc1,10.6%
10,COc1ccccc1NC(=S)NNC(=O)c1nn(C)c(C)c1Cl,active: 82.2%
11,CCCCN(CCCC)c1nc(-c2ccccc2)nc2ccccc12,-23%
12,CCOc1ccc(CCNC(=O)c2cnc3c(-c4ccccc4)c(C)nn3c2C)cc1OCC,-1.15%
13,Cc1cccc(NC(=O)CN2C(=O)CCc3ccccc32)c1C,-3.45%
14,CCc1ccc(CNC(=O)C2CCN(c3nnc(-n4c(C)ccc4C)s3)CC2)cc1,-8.3%
15,COc1ccc(N2CCN(c3oc(/C=C/c4cccc(OC)c4)nc3C#N)CC2)cc1,-1.83%
16,CC(C)c1ccc(OCC(=O)Nc2cc(-c3nc4ncccc4o3)ccc2Cl)cc1,4.2%
17,O=[N+]([O-])c1ccc(C(c2sc3nc(-c4ccco4)nn3c2O)N2CCC3(CC2)OCCO3)cc1 (stereo not drawn),1.96%
18,O=C(O)c1cccnc1Nc1cccc(C(F)(F)F)c1,active: 55.6%
19,COc1ccccc1CNC(=O)C(C)n1c(=O)cc(C(F)(F)F)c2c(C)nn(C)c21 (stereo not drawn),-7.15%
20,CCOC(=O)c1[nH]c(C)c(C(=O)NCc2ccc(F)cc2)c1C,11.4%
21,COc1cc(CNCCSc2nnnn2C)ccc1OCc1c(F)cccc1Cl,5.98%
22,CCOc1ccccc1Nc1ccc2cc(S(=O)(=O)N3CCCCC3)ccc2n1,13.8%
23,CCOC(=O)c1c(C)oc2nc(C)nc(NCCc3ccc(S(N)(=O)=O)cc3)c12,13.7%
